In the supplement of paper PMC4967469:
A lower IC50 marks a more sensitive line; a limit (>, <) means that the fit lies beyond the doses tested. AUC, from the same fit, is the share of area under the viability curve across the 256-fold dose range: 1 means no effect, lower means more sensitive. Where the top dose is marked as inferred, it comes from the curve model; the source does not state it.

How the values were obtained:
Test in all cases: Viability of human cancer cell lines after 72 h of drug (GDSC screen)
KIN001-266 = compound: CCN1CCC(n2cc(CNc3cc(Cl)c4ncc(C#N)c(Nc5ccc(F)c(Cl)c5)c4c3)nn2)CC1 [KIN001-266]; settings: top dose 20 µM; top dose inferred
Description: (§1)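 Human cancer cell lines in 384-well plates, medium with 10% serum, drug for 72 h over a 256-fold dose range (nine 2-fold or five 4-fold steps up to the top dose). Adherent lines were fixed and stained with the nucleic acid dye Syto60, suspension lines read with resazurin; signal relative to control wells, capped at 0 and 100%. One two-parameter sigmoid per drug and line, fitted in a mixed model over all curves with the slope shared within a line.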

BAY 61-3606 = compound: COc1ccc(-c2cc3nccn3c(Nc3ncccc3C(N)=O)n2)cc1OC [BAY 61-3606]; settings: top dose 8 µM; top dose inferred
Description: as §1

QL-XII-47 = compound: C=CC(=O)N1CCc2ccc(-n3c(=O)ccc4cnc5ccc(-c6cnn(C)c6)cc5c43)cc21 [QL-XII-47]; settings: top dose 10.24 µM; top dose inferred
Description: as §1

CCT007093 = compound: O=C1/C(=C/c2cccs2)CC/C1=C\c1cccs1 [CCT007093]; settings: top dose 6.6 µM; top dose inferred
Description: as §1

| Cell Line | AUC (KIN001-266) | IC50 (KIN001-266) [µM] | AUC (BAY 61-3606) | IC50 (BAY 61-3606) [µM] | AUC (QL-XII-47) | IC50 (QL-XII-47) [µM] | AUC (CCT007093) | IC50 (CCT007093) [µM] |
| --- | --- | --- | --- | --- | --- | --- | --- | --- |
| D-392MG (glioma, adherent) | 0.822 | 17.7 | 0.958 | > 8 | 0.783 | 6.07 | 0.952 | > 6.6 |
| D-502MG (glioma, adherent) | 0.857 | > 20 | 0.943 | > 8 | 0.832 | > 10.2 | 0.953 | > 6.6 |
| D-542MG (glioma, adherent) | 0.856 | > 20 | 0.984 | > 8 | 0.933 | > 10.2 | 0.98 | > 6.6 |
| DAN-G (pancreas, adherent) | 0.909 | > 20 | 0.992 | > 8 | 0.929 | > 10.2 | 0.991 | > 6.6 |
| DBTRG-05MG (glioma, adherent) | 0.868 | > 20 | 0.846 | 7.37 | 0.728 | 3.22 | 0.968 | > 6.6 |
| DEL (lymphoid neoplasm, suspension) | 0.893 | 14.9 | 0.787 | 2.72 | 0.62 | 1.27 | 0.994 | > 6.6 |
| DG-75 (Burkitt lymphoma, suspension) | 0.868 | 18.7 | 0.958 | > 8 | 0.74 | 3.13 | 0.946 | > 6.6 |
| DJM-1 (skin, adherent) | 0.938 | > 20 | 0.989 | > 8 | 0.756 | 3.48 | 0.986 | > 6.6 |
| DK-MG (glioma, adherent) | 0.945 | > 20 | 0.826 | > 8 | 0.557 | 0.989 | 0.926 | > 6.6 |
| DMS-53 (small cell lung carcinoma, adherent) | 0.988 | > 20 | 0.987 | > 8 | 0.987 | > 10.2 | 0.978 | > 6.6 |
| DMS-79 (small cell lung carcinoma, suspension) | 0.975 | > 20 | 0.966 | > 8 | 0.961 | > 10.2 | 0.987 | > 6.6 |
| DMS-114 (small cell lung carcinoma, adherent) | 0.966 | > 20 | 0.95 | > 8 | 0.891 | > 10.2 | 0.98 | > 6.6 |
| DND-41 (T-cell leukaemia, suspension) | 0.79 | 7.79 | 0.676 | 1.45 | 0.613 | 1.26 | 0.989 | > 6.6 |
| DOK (head and neck, adherent) | 0.953 | > 20 | 0.975 | > 8 | 0.715 | 3.59 | 0.88 | > 6.6 |
| DSH1 (bladder, adherent) | 0.98 | > 20 | 0.988 | > 8 | 0.815 | 5.32 | 0.955 | > 6.6 |
| DU-145 (prostate, adherent) | 0.892 | > 20 | 0.828 | 5.73 | 0.741 | 3.43 | 0.979 | > 6.6 |
| DU-4475 (breast, suspension) | 0.882 | 14.5 | 0.744 | 2.12 | 0.595 | 1.11 | 0.987 | > 6.6 |
| Daoy (medulloblastoma, adherent) | 0.926 | > 20 | 0.92 | > 8 | 0.627 | 1.39 | 0.988 | > 6.6 |
| Detroit562 (head and neck, adherent) | 0.943 | > 20 | 0.792 | 3.47 | 0.832 | 6.17 | 0.985 | > 6.6 |
| DoTc2-4510 (cervix, adherent) | 0.969 | > 20 | 0.633 | 1.14 | 0.774 | 3.8 | 0.953 | > 6.6 |
| EB2 (Burkitt lymphoma, suspension) | 0.73 | 5.22 | 0.6 | 0.914 | 0.388 | 0.325 | 0.981 | > 6.6 |

| Cell Line | AUC (KIN001-266) | IC50 (KIN001-266) [µM] | AUC (BAY 61-3606) | IC50 (BAY 61-3606) [µM] | AUC (QL-XII-47) | IC50 (QL-XII-47) [µM] | AUC (CCT007093) | IC50 (CCT007093) [µM] |
| --- | --- | --- | --- | --- | --- | --- | --- | --- |
| EB-3 (Burkitt lymphoma, suspension) | 0.762 | 8.29 | 0.755 | 3.12 | 0.535 | 0.808 | 0.977 | > 6.6 |
| EBC-1 (lung squamous cell carcinoma, adherent) | 0.879 | > 20 | 0.92 | > 8 | 0.703 | 2.59 | 0.979 | > 6.6 |
| EC-GI-10 (oesophagus, adherent) | 0.968 | > 20 | 0.989 | > 8 | 0.989 | > 10.2 | 0.969 | > 6.6 |
| ECC10 (stomach, suspension) | 0.893 | > 20 | 0.609 | 1.01 | 0.545 | 0.855 | 0.959 | > 6.6 |
| EFM-19 (breast, adherent) | 0.783 | 13.6 | 0.961 | > 8 | 0.499 | 0.633 | 0.975 | > 6.6 |
| EFM-192A (breast, adherent) | 0.98 | > 20 | 0.508 | 0.526 | 0.71 | 2.7 | 0.969 | > 6.6 |
| EFO-21 (ovary, adherent) | 0.905 | > 20 | 0.914 | > 8 | 0.875 | > 10.2 | 0.957 | > 6.6 |
| EFO-27 (ovary, adherent) | 0.863 | > 20 | 0.708 | 2.27 | 0.767 | 4.78 | 0.956 | > 6.6 |
| EGI-1 (biliary tract, adherent) | 0.958 | > 20 | 0.981 | > 8 | 0.725 | 3.44 | 0.981 | > 6.6 |
| EJM (lymphoid neoplasm, semi-adherent) | 0.88 | 15 | 0.886 | 6.38 | 0.793 | 3.87 | 0.991 | > 6.6 |
| EKVX (lung adenocarcinoma, adherent) | 0.912 | > 20 | 0.867 | > 8 | 0.947 | > 10.2 | 0.888 | > 6.6 |
| EM-2 (chronic myeloid leukaemia, suspension) | 0.868 | > 20 | 0.884 | > 8 | 0.65 | 1.76 | 0.982 | > 6.6 |
| EN (endometrium, adherent) | 0.87 | > 20 | 0.89 | > 8 | 0.887 | > 10.2 | 0.982 | > 6.6 |
| EPLC-272H (lung squamous cell carcinoma, adherent) | 0.864 | > 20 | 0.788 | 4 | 0.603 | 1.27 | 0.98 | > 6.6 |
| ES1 (Ewing sarcoma, adherent) | 0.867 | 17.5 | 0.727 | 2.18 | 0.505 | 0.661 | 0.985 | > 6.6 |
| ES3 (Ewing sarcoma, adherent) | 0.83 | 13.5 | 0.757 | 2.89 | 0.715 | 2.7 | 0.973 | > 6.6 |
| ES5 (Ewing sarcoma, adherent) | 0.837 | 16.2 | 0.777 | 3.72 | 0.564 | 0.985 | 0.976 | > 6.6 |
| ES6 (Ewing sarcoma, adherent) | 0.84 | 18.8 | 0.642 | 1.36 | 0.475 | 0.538 | 0.974 | > 6.6 |
| ES7 (Ewing sarcoma, adherent) | 0.769 | 7.75 | 0.635 | 1.19 | 0.463 | 0.506 | 0.979 | > 6.6 |
| ES8 (Ewing sarcoma, adherent) | 0.668 | 3.52 | 0.831 | 4.55 | 0.682 | 1.98 | 0.963 | > 6.6 |
| ES-2 (ovary, adherent) | 0.885 | 17.2 | 0.957 | > 8 | 0.671 | 1.79 | 0.99 | > 6.6 |

| Cell Line | AUC (KIN001-266) | IC50 (KIN001-266) [µM] | AUC (BAY 61-3606) | IC50 (BAY 61-3606) [µM] | AUC (QL-XII-47) | IC50 (QL-XII-47) [µM] | AUC (CCT007093) | IC50 (CCT007093) [µM] |
| --- | --- | --- | --- | --- | --- | --- | --- | --- |
| ESS-1 (endometrium, adherent) | 0.99 | > 20 | 0.811 | 3.71 | 0.76 | 3.28 | 0.99 | > 6.6 |
| ETK-1 (biliary tract, adherent) | 0.768 | 8.47 | 0.823 | 5.57 | 0.573 | 1.04 | 0.949 | > 6.6 |
| EVSA-T (breast, adherent) | 0.857 | 12.7 | 0.979 | > 8 | 0.778 | 3.56 | 0.991 | > 6.6 |
| EW-1 (Ewing sarcoma, semi-adherent) | 0.844 | 12.6 | 0.65 | 1.25 | 0.649 | 1.59 | 0.982 | > 6.6 |
| EW-3 (Ewing sarcoma, adherent) | 0.868 | > 20 | 0.815 | 5.2 | 0.83 | 7.74 | 0.978 | > 6.6 |
| EW-7 (Ewing sarcoma, semi-adherent) | 0.703 | 4.28 | 0.717 | 1.88 | 0.637 | 1.45 | 0.964 | > 6.6 |
| EW-11 (Ewing sarcoma, adherent) | 0.848 | > 20 | 0.835 | 7.59 | 0.735 | 3.72 | 0.981 | > 6.6 |
| EW-13 (Ewing sarcoma, suspension) | 0.704 | 5.02 | 0.697 | 1.92 | 0.639 | 1.62 | 0.985 | > 6.6 |
| EW-16 (Ewing sarcoma, adherent) | 0.814 | 11.5 | 0.687 | 1.72 | 0.894 | > 10.2 | 0.985 | > 6.6 |
| EW-18 (Ewing sarcoma, suspension) | 0.873 | > 20 | 0.807 | 4.44 | 0.72 | 2.82 | 0.984 | > 6.6 |
| EW-24 (Ewing sarcoma, semi-adherent) | 0.787 | 7.58 | 0.964 | > 8 | 0.993 | > 10.2 | 0.986 | > 6.6 |
| EoL-1-cell (haematopoietic neoplasm, suspension) | 0.852 | 12.7 | 0.433 | 0.335 | 0.779 | 3.69 | 0.941 | > 6.6 |
| FADU (head and neck, adherent) | 0.899 | > 20 | 0.959 | > 8 | 0.854 | 7.6 | 0.881 | 6.49 |
| FTC-133 (thyroid, adherent) | 0.977 | > 20 | 0.958 | > 8 | 0.986 | > 10.2 | 0.978 | > 6.6 |
| FU97 (stomach, adherent) | 0.861 | 17.7 | 0.888 | > 8 | 0.849 | 8.05 | 0.969 | > 6.6 |
| FU-OV-1 (ovary, adherent) | 0.874 | > 20 | 0.733 | 2.89 | 0.834 | 9.81 | 0.914 | > 6.6 |
| Farage (B-cell lymphoma, suspension) | 0.891 | 15.9 | 0.576 | 0.777 | 0.448 | 0.475 | 0.991 | > 6.6 |
| G-292 Clone A141B1 (osteosarcoma, adherent) | 0.948 | > 20 | 0.868 | > 8 | 0.865 | > 10.2 | 0.864 | > 6.6 |
| G-401 (kidney, adherent) | 0.795 | 10.3 | 0.78 | 3.64 | 0.69 | 2.3 | 0.973 | > 6.6 |
